In a collection of fitness landscapes (doi:10.1126/science.1257360):
Some of the results follow.

B1: PhoQ; a variant is named by its letters at X, in order, P23837 (parent)
chain: MKKLLRLFFPLSLRVRFLLATAAVVLVLSLAYGMVALIGYSVSFDKTTFRLLRGESNLFYTLAKWENNKLHVELPENIDKQSPTMTLIYDENGQLLWAQRDVPWLMKMIQPDWLKSNGFHEIEADVNDTSLLLSGDHSIQQQLQEVREDDDDAEMTHSVAVNVYPATSRMPKLTIVVVDTIPVELKSSYMVWSWFIYVLSANLLLVIPLLWVAAWWSLRPIEALAKEVRELEEHNRELLNPATTRELTSLVRNLNRLLKSERERYDKYRTTLTDLTHSLKTPLXXLQXXLRSLRSEKMSVSDAEPVMLEQISRISQQIGYYLHRASMRGGTLLSRELHPVAPLLDNLTSALNKVYQRKGVNISLDISPEISFVGEQNDFVEVMGNVLDNACKYCLEFVEISARQTDEHLYIVVEDDGPGIPLSKREVIFDRGQRVDTLRPGQGVGLAVAREITEQYEGKIVAGESMLGGARMEVIFGRQHSAPKDE

Variants of: B1
Assay: enrichment ratio after two sorts for PhoP signalling (ratio (wild type AVST 3.29)); higher = more functional
Conditions: with PhoP (E. coli)

Row | Variant | enrichment ratio
1 | YNSF | ≤ 0.25
2 | QPLD | ≤ 0.25
3 | KNDI | ≤ 0.25
4 | WLCF | ≤ 0.25
5 | QHQH | ≤ 0.25
6 | VHCG | ≤ 0.25
7 | NGMA | ≤ 0.25
8 | THRK | ≤ 0.25
9 | YDSY | ≤ 0.25
10 | YWFK | ≤ 0.25
11 | CLPF | ≤ 0.25
12 | PPGP | ≤ 0.25
13 | MNWP | ≤ 0.25
14 | GFPS | ≤ 0.25
15 | HNYY | ≤ 0.25
16 | KAVG | ≤ 0.25
17 | TDHF | ≤ 0.25
18 | AWRH | ≤ 0.25
19 | HITS | ≤ 0.25
20 | MGIF | ≤ 0.25
21 | RHAH | ≤ 0.25
22 | EQSM | ≤ 0.25
23 | RNRN | ≤ 0.25
24 | RTGK | ≤ 0.25
25 | WNFA | ≤ 0.25
26 | FLHE | ≤ 0.25

Row | Variant | enrichment ratio
27 | LSRE | ≤ 0.25
28 | VQKR | ≤ 0.25
29 | ADVM | 6.88
30 | GTST | 0.355
31 | QGMV | 23.6
32 | YDKA | ≤ 0.25
33 | PYIW | ≤ 0.25
34 | WHIY | ≤ 0.25
35 | HDTV | ≤ 0.25
36 | YVHL | ≤ 0.25
37 | GFCL | ≤ 0.25
38 | HTGP | ≤ 0.25
39 | DCQL | 4.02
40 | STWC | 0.489
41 | RTTN | ≤ 0.25
42 | MIPT | ≤ 0.25
43 | PMEP | ≤ 0.25
44 | ELDW | ≤ 0.25
45 | LLFH | ≤ 0.25
46 | FCDA | ≤ 0.25
47 | ETAM | ≤ 0.25
48 | QPSE | ≤ 0.25
49 | MVHL | 1.82
50 | NHDP | ≤ 0.25
51 | KCNH | ≤ 0.25
52 | FWRG | ≤ 0.25

Row | Variant | enrichment ratio
53 | AVTP | ≤ 0.25
54 | NAFM | ≤ 0.25
55 | RLFV | ≤ 0.25
56 | DMNT | ≤ 0.25
57 | QGGQ | 8.17
58 | IFCD | ≤ 0.25
59 | SLQW | ≤ 0.25
60 | ICSQ | ≤ 0.25
61 | LKVN | ≤ 0.25
62 | DIVW | ≤ 0.25
63 | RKRH | ≤ 0.25
64 | PPTK | ≤ 0.25
65 | FEAL | ≤ 0.25
66 | SSEV | 0.388
67 | NEDH | ≤ 0.25
68 | TKDH | ≤ 0.25
69 | TLWW | ≤ 0.25
70 | QPRK | ≤ 0.25
71 | RLKM | ≤ 0.25
72 | GWCY | ≤ 0.25
73 | IPDS | ≤ 0.25
74 | GWQL | ≤ 0.25
75 | ASPR | ≤ 0.25
76 | VNIW | ≤ 0.25
77 | SGHF | ≤ 0.25
78 | IGKR | ≤ 0.25

Row | Variant | enrichment ratio
79 | TCSI | 23.8
80 | HGKM | ≤ 0.25
81 | KGNT | ≤ 0.25
82 | DIFN | ≤ 0.25
83 | IKED | ≤ 0.25
84 | DTHN | ≤ 0.25
85 | WVSK | ≤ 0.25
86 | MFSV | ≤ 0.25
87 | PKYD | ≤ 0.25
88 | VGDC | ≤ 0.25
89 | PNGP | ≤ 0.25
90 | KHCP | ≤ 0.25
91 | IWPP | ≤ 0.25
92 | RMEI | ≤ 0.25
93 | KKPF | ≤ 0.25
94 | VCVP | ≤ 0.25
95 | SIPT | ≤ 0.25
96 | PMST | ≤ 0.25
97 | AYSY | ≤ 0.25
98 | FRHS | ≤ 0.25
99 | FLSG | 0.291
100 | CSIK | ≤ 0.25
101 | TDNR | ≤ 0.25
102 | ARSI | ≤ 0.25
103 | TSIS | 1.37
104 | RAAC | ≤ 0.25

Row | Variant | enrichment ratio
105 | YLGN | ≤ 0.25
106 | KCSF | ≤ 0.25
107 | GYGC | ≤ 0.25
108 | WPEP | ≤ 0.25
109 | FRPT | 0.275
110 | NNPQ | ≤ 0.25
111 | MFNP | ≤ 0.25
112 | WDLA | ≤ 0.25
113 | RKMD | ≤ 0.25
114 | QRQV | ≤ 0.25
115 | MNDE | ≤ 0.25
116 | RGEV | ≤ 0.25
117 | HTNP | ≤ 0.25
118 | RGCW | ≤ 0.25
119 | SIEG | ≤ 0.25
120 | TIVM | ≤ 0.25
121 | TGPG | ≤ 0.25
122 | DQHC | ≤ 0.25
123 | ELYH | ≤ 0.25
124 | KERP | ≤ 0.25
125 | PQLA | ≤ 0.25
126 | TFQD | ≤ 0.25
127 | FFYR | ≤ 0.25
128 | NCIY | ≤ 0.25
129 | YWYD | ≤ 0.25
130 | YHYL | ≤ 0.25

Row | Variant | enrichment ratio
131 | LHRP | ≤ 0.25
132 | IEVM | ≤ 0.25
133 | VKRQ | ≤ 0.25
134 | SDHW | ≤ 0.25
135 | MQYP | ≤ 0.25
136 | EMEH | ≤ 0.25
137 | VNNF | ≤ 0.25
138 | PNLR | ≤ 0.25
139 | YAMT | ≤ 0.25
140 | VALP | ≤ 0.25
141 | KLWY | ≤ 0.25
142 | WSVD | ≤ 0.25
143 | SLPK | ≤ 0.25
144 | RYKP | ≤ 0.25
145 | FVTY | ≤ 0.25
146 | RNWE | ≤ 0.25
147 | TLKF | ≤ 0.25
148 | SMKG | ≤ 0.25
149 | IVSA | ≤ 0.25
150 | HRQL | ≤ 0.25
151 | WQKS | ≤ 0.25
152 | VCKG | ≤ 0.25
153 | NWMS | ≤ 0.25
